These results are taken from paper PMC6430795, “Complex formation of APP with GABAB receptors links axonal trafficking to amyloidogenic processing” (Nature Communications, 2019).

By UniProt entry, the sequences of proteins in these tests, tags left out. Where a name states a change or a piece, a line headed by the entry shows the natural chain unless it says otherwise. Residues count along the entry.
UniProt Q9Z0U4, residues 20-960: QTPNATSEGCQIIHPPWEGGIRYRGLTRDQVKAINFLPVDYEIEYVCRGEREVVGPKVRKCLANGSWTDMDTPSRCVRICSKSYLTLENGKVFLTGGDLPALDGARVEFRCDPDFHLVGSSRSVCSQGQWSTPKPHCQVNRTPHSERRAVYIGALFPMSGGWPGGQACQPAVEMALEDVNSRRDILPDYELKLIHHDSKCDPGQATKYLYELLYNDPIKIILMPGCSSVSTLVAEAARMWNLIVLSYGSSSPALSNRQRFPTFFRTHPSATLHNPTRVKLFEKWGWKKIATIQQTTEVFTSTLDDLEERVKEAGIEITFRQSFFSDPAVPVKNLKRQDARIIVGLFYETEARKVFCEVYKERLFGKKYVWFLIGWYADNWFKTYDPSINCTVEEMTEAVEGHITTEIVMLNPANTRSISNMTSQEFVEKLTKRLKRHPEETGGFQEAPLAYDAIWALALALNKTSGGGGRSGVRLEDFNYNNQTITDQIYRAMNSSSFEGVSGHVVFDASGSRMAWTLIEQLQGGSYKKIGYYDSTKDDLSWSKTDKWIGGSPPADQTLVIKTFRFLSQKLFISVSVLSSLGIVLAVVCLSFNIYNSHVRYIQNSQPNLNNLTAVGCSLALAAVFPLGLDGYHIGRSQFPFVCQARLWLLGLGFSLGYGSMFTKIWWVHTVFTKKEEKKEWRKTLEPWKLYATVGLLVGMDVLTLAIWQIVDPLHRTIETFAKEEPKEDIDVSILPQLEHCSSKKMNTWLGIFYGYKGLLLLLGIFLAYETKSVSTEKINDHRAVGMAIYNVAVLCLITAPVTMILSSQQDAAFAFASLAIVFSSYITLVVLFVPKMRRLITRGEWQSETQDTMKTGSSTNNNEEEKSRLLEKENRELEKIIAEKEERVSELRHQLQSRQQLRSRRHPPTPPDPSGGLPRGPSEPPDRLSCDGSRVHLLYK
UniProt Q9WV18: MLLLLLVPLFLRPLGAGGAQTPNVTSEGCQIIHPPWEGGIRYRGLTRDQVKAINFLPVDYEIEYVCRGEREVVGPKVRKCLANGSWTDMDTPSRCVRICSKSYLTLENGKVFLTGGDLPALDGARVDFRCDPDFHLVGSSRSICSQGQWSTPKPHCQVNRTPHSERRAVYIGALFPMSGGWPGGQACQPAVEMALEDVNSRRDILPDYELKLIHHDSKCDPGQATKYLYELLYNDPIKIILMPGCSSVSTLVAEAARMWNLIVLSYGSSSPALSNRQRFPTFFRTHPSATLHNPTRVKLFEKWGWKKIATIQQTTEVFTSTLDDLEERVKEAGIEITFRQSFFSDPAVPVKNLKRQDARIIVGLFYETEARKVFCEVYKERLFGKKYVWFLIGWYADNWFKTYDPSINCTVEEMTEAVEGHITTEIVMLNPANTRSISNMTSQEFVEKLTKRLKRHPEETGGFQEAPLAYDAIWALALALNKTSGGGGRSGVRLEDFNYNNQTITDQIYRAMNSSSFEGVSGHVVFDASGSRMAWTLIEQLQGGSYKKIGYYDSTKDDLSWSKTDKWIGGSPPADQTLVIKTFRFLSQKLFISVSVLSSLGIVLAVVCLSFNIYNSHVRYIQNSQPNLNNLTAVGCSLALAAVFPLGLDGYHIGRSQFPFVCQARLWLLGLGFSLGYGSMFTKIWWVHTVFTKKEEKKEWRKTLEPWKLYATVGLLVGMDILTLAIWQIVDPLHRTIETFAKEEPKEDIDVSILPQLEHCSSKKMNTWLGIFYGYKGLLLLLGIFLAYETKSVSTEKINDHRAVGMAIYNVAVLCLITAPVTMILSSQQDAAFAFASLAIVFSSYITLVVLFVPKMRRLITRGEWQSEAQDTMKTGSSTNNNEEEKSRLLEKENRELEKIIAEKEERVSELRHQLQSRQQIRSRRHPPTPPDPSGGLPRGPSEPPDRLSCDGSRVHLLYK

Results are given in words; binding and its absence hold for the method and conditions named. In cells and extracts the contact can be indirect. Some binding calls cover weakened binding; strength is not graded here.

Assay [1] concerns the target T1, PILRα-associated neural protein (PIANP), native (mouse (endogenous in brain)) (UniProt Q6P1B3).
T1 sequence: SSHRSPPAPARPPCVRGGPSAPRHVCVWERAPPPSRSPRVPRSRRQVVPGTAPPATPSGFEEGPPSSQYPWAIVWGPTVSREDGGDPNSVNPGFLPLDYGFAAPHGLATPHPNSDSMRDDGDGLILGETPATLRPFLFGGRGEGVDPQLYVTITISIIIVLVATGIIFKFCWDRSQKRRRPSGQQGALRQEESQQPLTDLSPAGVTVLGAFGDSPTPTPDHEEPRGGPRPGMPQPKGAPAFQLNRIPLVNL
Nature of the assay: co-IP; mouse brain membrane fragments in NET buffer, untreated or treated with 1 mM GABA or 4 µM CGP54626 for 1 h, 0.5% Nonidet P-40; IP with anti-APP (Y188), anti-AJAP-1 or anti-PIANP for 16 h at 4 °C; GB1a read on immunoblots. (A western blot detects proteins with antibodies after separation by electrophoresis.)

Assay [2] deals with T2, adherence-junction associated protein 1 (AJAP-1), native (mouse (endogenous in brain)) (UniProt A2ALI5).
T2 sequence: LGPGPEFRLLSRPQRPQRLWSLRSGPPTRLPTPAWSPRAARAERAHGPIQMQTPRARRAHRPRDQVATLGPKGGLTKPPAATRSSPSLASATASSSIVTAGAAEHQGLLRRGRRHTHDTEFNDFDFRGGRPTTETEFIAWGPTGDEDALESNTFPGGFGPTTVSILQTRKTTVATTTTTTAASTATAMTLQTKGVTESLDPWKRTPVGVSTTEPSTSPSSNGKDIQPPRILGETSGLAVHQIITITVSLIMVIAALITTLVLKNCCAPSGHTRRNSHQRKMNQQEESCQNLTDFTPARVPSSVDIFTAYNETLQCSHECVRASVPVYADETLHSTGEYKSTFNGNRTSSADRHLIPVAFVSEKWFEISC
The assay is described as above.

A further assay deals with Myc-GB1a (UniProt Q9Z0U4). In words: co-IP; transfected HEK293 cells lysed in NETN buffer 24 h after transfection; antibodies (anti-Myc, anti-Flag and others) on Protein-G/A agarose; immunoblot.

Consider “native GABAB receptors (GBRs), GB1a/2 (from UniProt Q9WV18 20-960; Q80T41 41-940) (complex)”, for which the binding result in assay [1] and in assay [2] was “binds” in each case.
For the molecule “APP with residues 202–219 deleted (from UniProt P05067-4 18-695)”, the binding entry with Myc-GB1a is “no binding”.

B1: AJAP-1 (in pcDNA3) (protein, UniProt A2ALI5 44-412)
chain: LGPGPEFRLLSRPQRPQRLWSLRSGPPTRLPTPAWSPRAARAERAHGPIQMQTPRARRAHRPRDQVATLGPKGGLTKPPAATRSSPSLASATASSSIVTAGAAEHQGLLRRGRRHTHDTEFNDFDFRGGRPTTETEFIAWGPTGDEDALESNTFPGGFGPTTVSILQTRKTTVATTTTTTAASTATAMTLQTKGVTESLDPWKRTPVGVSTTEPSTSPSSNGKDIQPPRILGETSGLAVHQIITITVSLIMVIAALITTLVLKNCCAPSGHTRRNSHQRKMNQQEESCQNLTDFTPARVPSSVDIFTAYNETLQCSHECVRASVPVYADETLHSTGEYKSTFNGNRTSSADRHLIPVAFVSEKWFEISC
Take B1: in the assay with Myc-GB1a, the binding result is “binds”.

B2: AJAP-1 with residues 181–186 replaced with alanine (protein, UniProt A2ALI5 44-412)
chain: LGPGPEFRLLSRPQRPQRLWSLRSGPPTRLPTPAWSPRAARAERAHGPIQMQTPRARRAHRPRDQVATLGPKGGLTKPPAATRSSPSLASATASSSIVTAGAAEHQGLLRRGRRHTHDTEFNDFDFRGGRPTTETEFAAAAAAGDEDALESNTFPGGFGPTTVSILQTRKTTVATTTTTTAASTATAMTLQTKGVTESLDPWKRTPVGVSTTEPSTSPSSNGKDIQPPRILGETSGLAVHQIITITVSLIMVIAALITTLVLKNCCAPSGHTRRNSHQRKMNQQEESCQNLTDFTPARVPSSVDIFTAYNETLQCSHECVRASVPVYADETLHSTGEYKSTFNGNRTSSADRHLIPVAFVSEKWFEISC
For the molecule B2, the binding result with Myc-GB1a is recorded as “no binding”.
